Data taken from PubChem BioAssay (NCATS).
“And” between values parts separate entries of the source, which are not always exact repeats. Identical values can stand only once. Inconclusive means that the source gave no clear call. Such entries were picked first, then a sample of the others. A potency beside an inconclusive call is a rough fit, not a confirmed value. The source made the active and inactive calls. The call rests on the fitted dose curve; in most records, active means well fitted inhibition curve with a large enough effect; inconclusive means small, poorly fitted or top-dose-only effect; inactive means no such curve, though single readings can be large or run the other way.

assay: Primary qHTS for small molecule stabilizers of the endoplasmic reticulum resident proteome: Secreted ER Calcium Modulated Protein (SERCaMP) assay (AID 1508630); conditions: SH-SY5Y GLuc-SERCaMP (Gaussia luciferase released on ER calcium loss) secretion, thapsigargin, luminescence; activity change, negative = inhibition: at 38.4 µM (top of the series)
Text: Assay Provider: Brandon K. Harvey Ph.D.
National Institute on Drug Abuse, National Institutes of Health, Baltimore, MD
Endoplasmic reticulum (ER) dysregulation is associated with human pathologies including neurodegenerative, cardiovascular, muscular, and diabetic conditions. Maintenance of ER calcium is critical for functions of the ER and its depletion can lead to loss of ER resident proteins, in a process termed exodosis. Therapeutic compounds capable of attenuating the redistribution of ER proteins under pathological conditions may slow or stop disease progression. To identify such compounds, we performed a quantitative high-throughput screen (qHTS) using the SERCaMP assay, which monitors secretion of ER resident proteins triggered by calcium depletion.
SERCaMP was initially developed as a reporter of ER calcium homeostasis using a Gaussia luciferase with a modified signal peptide and carboxy-terminus (GLuc-SERCaMP), modifications that confer secretion of the reporter in response to ER calcium depletion (Henderson et al., 2014). The assay was used to screen 9,501 compounds, including a collection of drugs approved by the FDA (US), EMA (EU), NHI (Japan), and HC (Canada) regulatory agencies (Huang et al., 2011). Since the SERCaMP reporter reflects the exodosis phenomenon (Trychta et al., 2018a), compounds identified in the screen have the potential to prevent exodosis by different mechanisms such as stabilizing ER calcium or augmenting ERS retrieval.
1. Henderson, M.J., Wires, E.S., Trychta, K.A., Richie, C.T., and Harvey, B.K. (2014). SERCaMP: a carboxy-terminal protein modification that enables monitoring of ER calcium homeostasis. Mol Biol Cell 25, 2828-2839.
2. Huang, R., Southall, N., Wang, Y., Yasgar, A., Shinn, P., Jadhav, A., Nguyen, D.T., and Austin, C.P. (2011). The NCGC pharmaceutical collection: a comprehensive resource of clinically approved drugs enabling repurposing and chemical genomics. Sci Transl Med 3, 80ps16.
3. Trychta, K.A., Back, S., Henderson, M.J., and Harvey, B.K. (2018a). KDEL Receptors Are Differentially Regulated to Maintain the ER Proteome under Calcium Deficiency. Cell Rep 25, 1829-1840 e1826.
SEQUENCE No. (1, 2, 3, etc.); […] (e.g., Cells, Incubation, Reagent, etc.); VALUE and DESCRIPTION.
1; Reagent; 5 uL; 1000 SH-SY5Y cells per wells
3; Compound; 23 nL; Control inhibitor / compound library
5; Reagent; 100 nM; Thapsigargin
7; Reagent; 1 uL; 0.5x coelenterazine
8; Detection; Luminescence; ViewLux imaging system
NOTES (numbers refer to sequence above)
1; SH-SY5Y human neuroblastoma cells stably expressing GLuc-SERCaMP (SH-SY5Y-GLuc-ASARTDL) cells were seeded in 1,536 well white tissue culture treated plates (Corning, Cat# 7464) in DMEM-high glucose-sodium pyruvate (ThermoFisher Scientific, Cat #10569) supplemented with 10% bovine growth serum (Hyclone), 10 U/ml penicillin (Gibco), 10 ug/ml streptomycin (Gibco), and 20 mM HEPES.
2; Assay plates were incubated for 5 hour at 37C in a humidified incubator containing 5% CO2.
3; qHTS libraries (23 nl, final concentrations of 1.53 uM, 7.67 uM, 38.3 uM) or controls (neutral control: DMSO, positive control: dantrolene) were added using a Kalypsis pin-tool Robotic System equipped with 1536 pinheads.
4; Cells were then incubated for 16 hours at 37C, 5% CO2.
5; Thapsigargin was added at 100 nM to deplete ER calcium stores.
6; Cells were incubated for 4 hour (37 °C, 5% CO2)
7; Gaussia luciferase in the medium was measured by adding 1 ul of 0.5x coelenterazine (final concentration 0.07x) prepared in Gaussia Luciferase Glow Assay Buffer (Pierce), without addition of the Cell Lysis Buffer Reagent.
8; Luminescence was measured using a ViewLux […] CCD imaging system (Perkin Elmer) equipped with clear filters. […] The same controls were also used for the calculation of the Z' factor, a measure of assay quality control, as previously described (Zhang et al., 1999). […]
On the % scale 0 is the no-effect control and ±100 the full control effect; potency means the concentration at half of the fitted maximal effect; tags describe the fitted curve by direction and shape.

SMILES | Potency | activity change, negative = inhibition
Cc1nc(Nc2ncc(C(=O)Nc3c(C)cccc3Cl)s2)cc(N2CCN(CCO)CC2)n1 | inconclusive: 11.2 µM [inhibitor, single point] | –
COc1cc(C(C)=O)ccc1OCCCN1CCC(c2noc3cc(F)ccc23)CC1 | inconclusive: 10 µM [inhibitor, single point] | –
C1Cc2[nH]nc(-c3nn[nH]n3)c2C1 | inconclusive: 14.9 µM [inhibitor, partial curve, poor fit] | –
C[C@@H](NCCCc1cccc(C(F)(F)F)c1)c1cccc2ccccc12 | inconclusive: 18.8 µM [inhibitor, single point] | –
CCOC(=O)Nc1ccc(NCc2ccc(F)cc2)nc1N | inconclusive: 28.2 µM [inhibitor, single point] | –
O=c1oc2c(O)c(O)cc3c(=O)oc4c(O)c(O)cc1c4c23 | inconclusive: 39.8 µM [inhibitor, full curve] and inactive | –
NCC1CCC(C(=O)O)CC1 (stereo not given) | – | inactive: 39.8%
Cc1c(O)cccc1C(=O)N[C@@H](CSc1ccccc1)[C@H](O)CN1C[C@H]2CCCC[C@@H]2C[C@@H]1C(=O)NC(C)(C)C | inconclusive: 13.3 µM [inhibitor, partial curve, poor fit] | –
CC(C)(Cc1ccc2ccccc2c1)NC[C@@H](O)COc1cccc(Cl)c1C#N | – | inactive: 477%
CC=CC(=O)N(CC)c1ccccc1C | – | inactive: 57.9%
C[C@]1(c2nc3c(C(N)=O)cccc3[nH]2)CCCN1 | – | inactive: 120%
O=C(O)c1cc(=O)[nH]c(=O)[nH]1 | inconclusive: 2 µM [inhibitor, full curve, poor fit] and inconclusive: 749 nM [inhibitor, full curve, poor fit] | –
O=C(O)c1ccc(-c2c[nH]c3ncc(-c4ccccc4)cc23)cc1C1CCCC1 | inconclusive: 2.66 µM [inhibitor, full curve] | –
O=C(O)c1cn(-c2ccc(F)cc2)c2cc(N3CCNCC3)c(F)cc2c1=O | inconclusive: 10 µM [inhibitor, partial curve, poor fit] and inconclusive: 5.62 µM [inhibitor, partial curve, poor fit] | –
Cc1coc2c1C(=O)C(=O)c1c-2ccc2c1CCCC2(C)C | inconclusive: 0.0668 µM [inhibitor, full curve] | –
Cc1nc(C(=O)NCC(=O)O)c(O)c2ccc(Oc3ccccc3)cc12 | inconclusive: 2.98 µM [inhibitor, partial curve, poor fit] | –
CNC[C@H](O)c1cccc(O)c1 | inconclusive: 3.16 µM [inhibitor, full curve, poor fit] and inconclusive: 0.8 nM [inhibitor] | –
CN1CCN(CCCN2c3ccccc3Sc3ccc(Cl)cc32)CC1 | inconclusive: 28.2 µM [inhibitor, single point] and inconclusive: 12.6 µM [inhibitor, single point] | –
N#Cc1c(N(CC(=O)O)CC(=O)O)sc(C(=O)O)c1CC(=O)O | inconclusive: 0.0119 µM [inhibitor, full curve, poor fit] | –
CC(C)C1CCC(C(=O)N[C@H](Cc2ccccc2)C(=O)O)CC1 (stereo not given in full) | inconclusive: 11.9 µM [inhibitor, single point] | –

SMILES | Potency | activity change, negative = inhibition
CO[C@H]1C[C@@H]2CC[C@@H](C)[C@@](O)(O2)C(=O)C(=O)N2CCCC[C@@H]2C(=O)O[C@H]([C@H](C)C[C@@H]2CC[C@H](OP(C)(C)=O)[C@H](OC)C2)CC(=O)[C@H](C)C=C(C)[C@@H](O)[C@@H](OC)C(=O)[C@H](C)C[C@H](C)C=CC=CC=C1C | inconclusive: 0.188 µM [inhibitor, full curve, poor fit] | –
N=C1SC(=Cc2ccc(-c3ccc4c(c3)C(=O)NC4=O)o2)C(=O)N1c1ccc(Br)cc1 | – | inconclusive: -32.4% [inhibitor]
O=C(c1cncc(Br)c1)N1CCC(N2CCCC2)CC1 | inconclusive: 4.21 µM [inhibitor, full curve, poor fit] | –
CC[C@H]1OC(=O)[C@H](C)C(=O)[C@H](C)[C@@H](O[C@H]2O[C@H](C)C[C@H](N(C)C)[C@@H]2O)[C@](C)(OC)C[C@@H](C)C(=O)[C@H](C)[C@H]2N(CCCCn3cnc(-c4cccnc4)c3)C(=O)O[C@]12C | inconclusive: 11.9 µM [inhibitor, single point] | –
COCCCOc1cc(C[C@@H](C[C@H](N)[C@@H](O)C[C@H](C(=O)NCC(C)(C)C(N)=O)C(C)C)C(C)C)ccc1OC | inactive | –
C[C@H]1c2cccc(O)c2C(O)=C2C(=O)[C@]3(O)C(O)=C(C(N)=O)C(=O)[C@@H](N(C)C)[C@@H]3[C@@H](O)[C@@H]21 | inconclusive: 31.6 µM [inhibitor, partial curve, poor fit] | –
Cc1nccn1CC1CCc2c(c3ccccc3n2C)C1=O (stereo not given) | inconclusive: 12.6 µM [inhibitor, single point] | –
N=C(N=C(N)N)N1CCOCC1 | inconclusive: 0.749 µM [inhibitor, full curve, poor fit] | –
CN[C@H](CC(C)C)C(=O)N[C@H]1C(=O)N[C@@H](CC(N)=O)C(=O)N[C@@H]2C(=O)N[C@H]3C(=O)N[C@H](C(=O)N[C@H](C(=O)O)c4cc(O)cc(O)c4-c4cc3ccc4O)[C@H](O)c3ccc(c(Cl)c3)Oc3cc2cc(c3O[C@@H]2O[C@H](CO)[C@@H](O)[C@H](O)[C@@H]2O[C@H]2C[C@](C)(N)[C@H](O)[C@H](C)O2)Oc2ccc(cc2Cl)[C@H]1O | inconclusive: 0.0011 µM [inhibitor] | –
Clc1ccc(C(Cn2ccnc2)OCc2ccsc2Cl)c(Cl)c1 (stereo not given) | inconclusive: 28.2 µM [inhibitor, single point] and inconclusive: 1.5 nM [inhibitor, full curve, poor fit] | –
O=c1[nH]c(=O)n([C@H]2C[C@@H](O)[C@@H](CO)O2)cc1C=CBr | – | inactive: 53.2%
CCn1c(C(=O)N(C2CC2)C2CC2)cc2c3c(ncn3C)c(Nc3cc(C)n(C)n3)nc21 | – | inactive: 0%
Cc1c[nH]c(C=C2C(=O)Nc3ccccc32)c1CCC(=O)O | inconclusive: 0.0749 µM [inhibitor, full curve, poor fit] | –
C[N+]1(C)[C@@H]2CC(OC(=O)[C@H](CO)c3ccccc3)C[C@H]1[C@H]1O[C@@H]12 (stereo not given in full) | – | inactive: 7.46%
COc1nc(-c2ccc3c(c2)OCO3)n(-c2ccc(NC(=O)CSc3ccccc3)cc2)n1 | – | inactive: 9.29%
NCCS(=O)(=O)O | inactive and inconclusive: 31.6 µM [inhibitor, partial curve, poor fit] | –
C=C(C)[C@@H]1CC[C@]2(C)CC[C@]3(C)[C@H](CC[C@@H]4[C@@]5(C)CC[C@H](O)C(C)(C)[C@H]5CC[C@]43C)[C@@H]12 | inconclusive: 0.595 µM [inhibitor, full curve, poor fit] | –
CO[C@H]1/C=C\O[C@@]2(C)Oc3c(C)c(O)c4c(O)c(c5c(nc6cc(C)ccn65)c4c3C2=O)NC(=O)C(C)=CC=C[C@H](C)[C@H](O)[C@@H](C)[C@@H](O)[C@@H](C)[C@H](OC(C)=O)[C@H]1C | inconclusive: 29.8 µM [inhibitor, single point] | –
O=c1ccn([C@@H]2O[C@H](CO)[C@H](O)[C@H]2O)c(=O)[nH]1 | active: 1.68 µM | –
CCOC(=O)C=C[C@H](C[C@@H]1CCNC1=O)NC(=O)[C@@H](CC(=O)[C@@H](NC(=O)c1cc(C)on1)C(C)C)Cc1ccc(F)cc1 | – | inactive: -26%
